Measurements as given in the supplement of paper PMC10126150.
Values marked as one replicate rest on one cluster of the flow cell; about a third of the high ones do not repeat.
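Note: ATP exposure 15 min at 22 °C before imaging.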

The sequences below were run on ATP (assay: switch fluorescence ratio, 500 uM ATP over buffer (Cy3 cluster intensity, sum of 5 cycles each) (fold (ratio)); higher = stronger signal-on switching upon ATP binding; sequences stand for … in TCGTCGGCAGCGTCAGATGTGTATAAGAGACAGTTTTTTTTTTTTTTTTTTTTTTTTT…TC). Conditions: aptamer strand: ATP DNA aptamer (quencher-CACCTGGGGGAGTATTGCGGAGGAAGG + anchor), 100 nM annealed; ATP concentration: 500 uM; one replicate.
Method in brief: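 Between each of five buffer/ATP cycles, the flow-cell was stripped with NaOH and re-annealed. Each cycle imaged Cy3-labelled switching-strand clusters, annealed to 100 nM quencher-labelled ATP aptamer on a modified Illumina MiSeq flow-cell, first in selection buffer and then after 15 min with 500 uM ATP at 22 °C. The fluorescence ratio is summed target-cycle over summed buffer-cycle Cy3 intensity per cluster, averaged per switch-domain sequence, with clusters outside 100-1000 RFU excluded.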
In the case of CTAAACTGGG, the switch fluorescence ratio is reported as 1.08.
In the case of CTAAAGGCC, the switch fluorescence ratio is reported as 1.01.
CTAAATCTGG was tested, and the switch fluorescence ratio was 0.987.
Work on CTAACCAACC yielded a switch fluorescence ratio of 1.18.
Work on CTAACGGCGA yielded a switch fluorescence ratio of 1.15.
CTAACGGCGG showed a switch fluorescence ratio of 1.02.
CTAACGTAAA showed a switch fluorescence ratio of 1.11.
CTAACGTCCT showed a switch fluorescence ratio of 0.996.
CTAACTACGG was tested, and the switch fluorescence ratio was 1.06.
Sequence CTAACTTTGA has a switch fluorescence ratio of 0.983.
With CTAAGAAT the switch fluorescence ratio was 1.
Sequence CTAAGACCGA has a switch fluorescence ratio of 0.997.
For CTAAGAGGAG, the switch fluorescence ratio was 0.976.
With CTAAGCACCA the switch fluorescence ratio was 1.22.
For CTAAGCCAGA, the switch fluorescence ratio was 1.06.
Work on CTAAGCCGAG yielded a switch fluorescence ratio of 1.06.
CTAAGCTCAG was tested, and the switch fluorescence ratio was 1.04.
For CTAAGGCTAA, the switch fluorescence ratio was 1.02.
CTAAGGGGCG showed a switch fluorescence ratio of 1.05.
Work on CTAAGGGTGC yielded a switch fluorescence ratio of 1.03.
CTAAGTGATG showed a switch fluorescence ratio of 0.997.
CTAATAATGT gave a switch fluorescence ratio of 0.973.
For CTAATCCCAC, the switch fluorescence ratio was 1.
CTAATGATA was tested, and the switch fluorescence ratio was 1.07.
For CTAATGTGGG, the switch fluorescence ratio was 0.951.
In the case of CTAATTAAAT, the switch fluorescence ratio is reported as 0.98.
Work on CTAATTGTGG yielded a switch fluorescence ratio of 0.978.
Work on CTACATATTG yielded a switch fluorescence ratio of 1.04.
CTACCCATTG showed a switch fluorescence ratio of 1.02.
CTACCCGACA showed a switch fluorescence ratio of 1.93.
For CTACCGAGCG, the switch fluorescence ratio was 1.27.
With CTACCTCTTT the switch fluorescence ratio was 1.06.
In the case of CTACCTGTGG, the switch fluorescence ratio is reported as 0.977.
Sequence CTACGAAGAC has a switch fluorescence ratio of 4.74.
CTACGACACA gave a switch fluorescence ratio of 1.49.
In the case of CTACGTGAGT, the switch fluorescence ratio is reported as 1.01.
Sequence CTACGTTCGG has a switch fluorescence ratio of 0.991.
Work on CTACGTTTGC yielded a switch fluorescence ratio of 2.6.
CTACTAAGAG showed a switch fluorescence ratio of 0.993.
With CTACTGGCGG the switch fluorescence ratio was 1.01.
With CTACTTGGGT the switch fluorescence ratio was 1.04.
CTACTTTCGA was tested, and the switch fluorescence ratio was 1.02.
CTAGAATG showed a switch fluorescence ratio of 1.02.
CTAGAATGAA gave a switch fluorescence ratio of 1.02.
For CTAGAGGGAC, the switch fluorescence ratio was 1.05.
Work on CTAGATTCCA yielded a switch fluorescence ratio of 0.971.
CTAGCAACAT was tested, and the switch fluorescence ratio was 1.23.
In the case of CTAGCACATG, the switch fluorescence ratio is reported as 0.959.
CTAGCACTAT showed a switch fluorescence ratio of 1.21.
Work on CTAGCATAGA yielded a switch fluorescence ratio of 1.02.
CTAGCATTTA was tested, and the switch fluorescence ratio was 1.06.
For CTAGCCAAGC, the switch fluorescence ratio was 1.06.
Work on CTAGCCGAGT yielded a switch fluorescence ratio of 1.02.
With CTAGCGGGGA the switch fluorescence ratio was 1.05.
CTAGCGGGTC showed a switch fluorescence ratio of 0.987.
For CTAGCTAATC, the switch fluorescence ratio was 1.43.
CTAGCTAGCT showed a switch fluorescence ratio of 1.02.
Work on CTAGCTGCCG yielded a switch fluorescence ratio of 0.991.
CTAGGACCGA was tested, and the switch fluorescence ratio was 1.
With CTAGGACGCT the switch fluorescence ratio was 1.04.
Sequence CTAGGATATC has a switch fluorescence ratio of 1.01.
With CTAGGCCATT the switch fluorescence ratio was 1.02.
For CTAGGCGGTG, the switch fluorescence ratio was 0.927.
CTAGGCGTTG showed a switch fluorescence ratio of 0.942.
CTAGGGCG showed a switch fluorescence ratio of 0.981.
CTAGGGGAA was tested, and the switch fluorescence ratio was 0.973.
With CTAGGTACA the switch fluorescence ratio was 1.1.
For CTAGGTATCG, the switch fluorescence ratio was 0.976.
CTAGGTGTGC gave a switch fluorescence ratio of 1.04.
Work on CTAGTAAGGA yielded a switch fluorescence ratio of 0.982.
CTAGTAAGTT was tested, and the switch fluorescence ratio was 0.996.
Sequence CTAGTACGCG has a switch fluorescence ratio of 1.02.
For CTAGTATTAT, the switch fluorescence ratio was 0.958.
For CTAGTCATT, the switch fluorescence ratio was 0.979.
Sequence CTAGTCCTAC has a switch fluorescence ratio of 1.02.
CTAGTCGTTG showed a switch fluorescence ratio of 1.05.
Work on CTAGTCTAAG yielded a switch fluorescence ratio of 0.984.
CTAGTCTCCC was tested, and the switch fluorescence ratio was 1.05.
CTAGTGATGC was tested, and the switch fluorescence ratio was 1.49.
CTAGTGGACC was tested, and the switch fluorescence ratio was 0.999.
CTAGTTAGT was tested, and the switch fluorescence ratio was 1.01.
CTAGTTCCCG gave a switch fluorescence ratio of 0.943.
With CTAGTTGATC the switch fluorescence ratio was 1.09.
Sequence CTAGTTGTAT has a switch fluorescence ratio of 1.01.
With CTATAATCTG the switch fluorescence ratio was 1.03.
In the case of CTATAATCTT, the switch fluorescence ratio is reported as 0.998.
Sequence CTATAGCTAT has a switch fluorescence ratio of 1.17.
CTATATAAAG showed a switch fluorescence ratio of 0.989.
CTATCCTGAC gave a switch fluorescence ratio of 1.95.
In the case of CTATCGAATT, the switch fluorescence ratio is reported as 0.957.
Sequence CTATCGAGCC has a switch fluorescence ratio of 0.968.
CTATCGGTTT showed a switch fluorescence ratio of 0.982.
CTATCGTCG showed a switch fluorescence ratio of 1.03.
Work on CTATCTATA yielded a switch fluorescence ratio of 1.03.
For CTATCTGAAT, the switch fluorescence ratio was 0.973.
Sequence CTATCTTAGT has a switch fluorescence ratio of 0.996.
Work on CTATCTTTGG yielded a switch fluorescence ratio of 0.982.
CTATGAGGTA showed a switch fluorescence ratio of 0.987.
For CTATGCAAAT, the switch fluorescence ratio was 1.38.
CTATGCTTGT showed a switch fluorescence ratio of 0.977.
Work on CTATGGAGTC yielded a switch fluorescence ratio of 0.992.
CTATGGCACT gave a switch fluorescence ratio of 1.02.
CTATGGCCAC showed a switch fluorescence ratio of 1.01.
In the case of CTATGGTTGT, the switch fluorescence ratio is reported as 0.972.
CTATGTCCTA was tested, and the switch fluorescence ratio was 0.985.
With CTATGTGCCT the switch fluorescence ratio was 1.03.
In the case of CTATTATTTT, the switch fluorescence ratio is reported as 0.994.
CTATTGCTCA gave a switch fluorescence ratio of 1.03.
CTATTGGGGG gave a switch fluorescence ratio of 1.01.
With CTATTGTCAG the switch fluorescence ratio was 0.983.
Work on CTATTTAGGA yielded a switch fluorescence ratio of 0.982.
Work on CTATTTGGTG yielded a switch fluorescence ratio of 1.01.
With CTCAAATAAA the switch fluorescence ratio was 0.923.
For CTCAACGGG, the switch fluorescence ratio was 0.96.
CTCAAGAGTG was tested, and the switch fluorescence ratio was 1.01.
Work on CTCAAGTGAT yielded a switch fluorescence ratio of 1.06.
In the case of CTCACAGGCC, the switch fluorescence ratio is reported as 1.05.
With CTCACATGCA the switch fluorescence ratio was 1.03.
CTCACCGCCG gave a switch fluorescence ratio of 1.12.
CTCACCGCGG showed a switch fluorescence ratio of 1.04.
CTCAGAGGCA gave a switch fluorescence ratio of 1.02.
CTCAGATAAT gave a switch fluorescence ratio of 1.02.
CTCAGCGGTA showed a switch fluorescence ratio of 1.45.
CTCAGGATAG showed a switch fluorescence ratio of 1.31.
CTCAGGGCCC was tested, and the switch fluorescence ratio was 1.03.
CTCATAAAGC was tested, and the switch fluorescence ratio was 1.04.
CTCATAAATA gave a switch fluorescence ratio of 1.03.
CTCATAGAAA was tested, and the switch fluorescence ratio was 0.98.
With CTCATATCAG the switch fluorescence ratio was 0.99.
For CTCATCCCTT, the switch fluorescence ratio was 1.05.
For CTCATCGGTG, the switch fluorescence ratio was 1.05.
With CTCATCGTAC the switch fluorescence ratio was 1.64.
With CTCATGGAGT the switch fluorescence ratio was 0.946.
With CTCCAACGTG the switch fluorescence ratio was 1.15.
CTCCAATTAA showed a switch fluorescence ratio of 1.41.
For CTCCACAGGG, the switch fluorescence ratio was 1.22.
CTCCACGTTC showed a switch fluorescence ratio of 1.57.
For CTCCAGAGTT, the switch fluorescence ratio was 1.04.
For CTCCAGTTGG, the switch fluorescence ratio was 0.989.
CTCCATTCTC gave a switch fluorescence ratio of 1.21.
CTCCCAGTCT was tested, and the switch fluorescence ratio was 1.47.
Work on CTCCGGCCGT yielded a switch fluorescence ratio of 1.21.
Work on CTCCGGCGCC yielded a switch fluorescence ratio of 1.34.
CTCCGGGGAT was tested, and the switch fluorescence ratio was 4.11.
With CTCCGTAGT the switch fluorescence ratio was 7.02.
CTCCGTCCG showed a switch fluorescence ratio of 1.52.
CTCCGTCTTC showed a switch fluorescence ratio of 1.11.
In the case of CTCCTAAGCT, the switch fluorescence ratio is reported as 1.13.
For CTCCTAGTCT, the switch fluorescence ratio was 1.32.
CTCCTGTATA was tested, and the switch fluorescence ratio was 1.24.
CTCCTTTGCC showed a switch fluorescence ratio of 1.09.
In the case of CTCCTTTGTA, the switch fluorescence ratio is reported as 0.992.
With CTCGAAACGC the switch fluorescence ratio was 1.13.
